From paper PMC4336329 (PLoS ONE, 2015)
In all, about 310,000 compounds went through this assay and about 14,000 (4.5%) showed an effect of 50% or more. Effects have a minus sign here. The list shows a part of the results.

Biological target: human ether-à-go-go-related gene (hERG) potassium channel (human, UniProt Q12809)
Test: primary screen, population patch clamp on CHO cells stably expressing hERG
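Also: peak tail current of the secondary pulse compared with the same well before compound.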

Sequence of human ether-à-go-go-related gene (hERG) potassium channel (Q12809 whole entry, looked up): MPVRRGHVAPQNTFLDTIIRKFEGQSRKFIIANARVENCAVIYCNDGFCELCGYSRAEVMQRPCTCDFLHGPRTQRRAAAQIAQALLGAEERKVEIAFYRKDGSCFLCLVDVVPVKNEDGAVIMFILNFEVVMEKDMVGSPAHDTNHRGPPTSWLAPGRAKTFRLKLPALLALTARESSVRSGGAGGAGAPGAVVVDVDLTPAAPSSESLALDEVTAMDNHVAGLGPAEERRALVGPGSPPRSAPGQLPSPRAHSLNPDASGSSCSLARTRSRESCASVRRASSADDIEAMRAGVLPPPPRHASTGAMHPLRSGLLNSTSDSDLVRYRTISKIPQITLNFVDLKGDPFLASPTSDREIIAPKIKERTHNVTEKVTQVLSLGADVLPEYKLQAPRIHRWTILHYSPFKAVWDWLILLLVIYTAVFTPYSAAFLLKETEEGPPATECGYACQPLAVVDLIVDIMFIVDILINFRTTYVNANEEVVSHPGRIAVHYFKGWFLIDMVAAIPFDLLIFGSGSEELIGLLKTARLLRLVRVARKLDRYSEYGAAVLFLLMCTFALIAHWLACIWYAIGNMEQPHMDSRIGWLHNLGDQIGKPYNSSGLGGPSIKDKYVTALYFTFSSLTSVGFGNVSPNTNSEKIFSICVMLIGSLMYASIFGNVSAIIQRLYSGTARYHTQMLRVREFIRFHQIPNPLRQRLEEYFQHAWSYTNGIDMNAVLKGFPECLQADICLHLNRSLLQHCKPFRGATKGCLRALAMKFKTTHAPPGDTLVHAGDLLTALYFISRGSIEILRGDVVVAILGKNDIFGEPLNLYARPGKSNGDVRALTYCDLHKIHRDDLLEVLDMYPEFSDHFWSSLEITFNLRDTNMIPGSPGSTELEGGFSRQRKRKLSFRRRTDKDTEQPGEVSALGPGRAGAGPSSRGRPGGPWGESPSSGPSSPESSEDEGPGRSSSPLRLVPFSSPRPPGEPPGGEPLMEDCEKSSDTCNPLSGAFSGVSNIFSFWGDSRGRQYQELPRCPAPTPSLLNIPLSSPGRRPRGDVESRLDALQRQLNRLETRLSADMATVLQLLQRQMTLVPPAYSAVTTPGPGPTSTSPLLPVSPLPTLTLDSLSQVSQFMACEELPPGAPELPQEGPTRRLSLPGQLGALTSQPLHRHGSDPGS

Row | Compound | hERG current change (%, negative = inhibition) at 10uM [%]
1 | CCNC(=O)COC(=O)c1cc(-c2ccccc2)nn1-c1ccccc1 | -61.8
2 | Cc1ccc(/C=N/Nc2cccc(C(=O)O)c2)s1 | 35.7
3 | C(=N\Nc1ccccc1)/c1nc2ccccc2s1 | 3.75
4 | Cl.N=c1sccn1Cc1ccc(Cl)cc1Cl | -24.2
5 | Cc1ccc(OCCC(=O)OCC(=O)c2c(N)n(C)c(=O)n(C)c2=O)cc1 | -58.3
6 | COCCn1c(SCC(=O)Nc2cc(C)cc(C)c2)nc2ccccc2c1=O | -43.2
7 | Cc1cccc(-n2c(O)c(C=Nc3ccc(S(N)(=O)=O)cc3)c(=O)[nH]c2=O)c1 | 33
8 | Cc1sc2nc(-c3cccnc3)nc(Cl)c2c1-c1ccccc1 | 1.93
9 | CCS(=O)(=O)N1Cc2ccccc2CC1C(=O)Nc1nc2ccccc2[nH]1 (stereo not drawn) | -29.3
10 | C/C(CC(=O)Nc1ccc(C)c(Cl)c1)=N\NC(=O)c1ccco1 | -24.1
11 | Cc1c(NS(=O)(=O)c2ccc(Cl)c(C(=O)OCC(=O)NCc3ccco3)c2)c(=O)n(-c2ccccc2)n1C | -51.9
12 | O=c1ccc2ccc(Oc3ccc([N+](=O)[O-])cc3[N+](=O)[O-])cc2o1 | -40.3
13 | Cc1cc(C(=O)N/N=C\c2cc(C(C)(C)C)c(O)c(C(C)(C)C)c2)n[nH]1 | 2.28
14 | CCc1nnc(NC(=O)COc2ccc([N+](=O)[O-])cc2)s1 | 11.2
15 | Cc1c(N)cc[n+](CC(=O)c2ccccc2)c1C.[Br-] | 16.4
16 | O=C(NC1CCCCC1)c1ccc2c(c1)S(=O)(=O)c1ccccc1C2=O | 3.57
17 | CCCCCCC(=O)N(O)C1CC(=O)N(c2ccc(Cl)cc2)C1=O (stereo not drawn) | 4.46
18 | Br.N=c1n(CC(=O)c2ccc([N+](=O)[O-])cc2)c2ccccc2n1Cc1ccccc1 | -70.1
19 | Cc1ccc(-c2cc(C(F)F)n3ncc(C(=O)N4CCC5(CC4)OCCO5)c3n2)cc1 | -18.9
20 | COc1ccc(S(=O)(=O)N(C)CC(=O)NCCN2CCOCC2)cc1C | 23.8
21 | COc1ccc(C(=O)Nc2ccc(OC)c(OC)c2)cc1 | 3.98
22 | COc1ccc(CCNC(=O)CN2C(=O)NC(Cc3c[nH]c4ccccc34)C2=O)cc1 (stereo not drawn) | -0.343
23 | CCc1ccc(NCc2nc(-c3ccccc3)no2)cc1 | -14.6
24 | O=C(CN1C(=O)C2CCCCC2C1=O)Nc1nc(-c2ccc(F)cc2)cs1 (stereo not drawn) | 5.21
